{"source": "PubChem BioAssay AID624173", "about": "(National Center for Advancing Translational Sciences (NCATS), 2012)", "note": "“And” between values parts separate entries of the source, which are not always exact repeats. Identical values can stand only once. Out of some 410,000 compounds screened, about 490 (0.12%) were called active. This list was built around the results that the source calls inconclusive (neither active nor inactive); the mix of calls is not that of the screen. Calls come from the whole dose curve; as a rule, active = well fitted inhibition curve with a large enough effect; inconclusive = small, poorly fitted or top-dose-only effect; inactive = flat fitted curve, though single readings scatter. A potency beside an inconclusive call is a rough fit, not a confirmed value. % is set by controls: 0 for no effect and ±100 for the full control effect; potency is the fitted concentration of half-maximal effect; tags give direction and shape of the fitted curve."}
{"target": "pyruvate kinase (Trypanosoma brucei) (UniProt Q57TT1)", "assay": "qHTS of Trypanosoma Brucei Inhibitors; note: nearly all actives have a fitted effect of over 50% in size", "conditions": "TbPYK enzyme, Kinase-Glo Plus ATP luminescence, 45 min; series mostly up to 76.8 µM; activity, negative = inhibition: at the top concentration", "summary_of_the_method": "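Enzyme and substrate buffer are dispensed first and compound is pin-transferred. ADP at 130 uM final then starts the reaction, which runs 45 min at room temperature. Detection reagent is added for 10 min before luminescence is imaged.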"}
{"smiles": "CCOc1cc(/C=N/N=C2/NC(=O)C(CC(=O)O)S2)ccc1OCc1ccc(Cl)cc1", "note": "(stereo not given)", "Potency": "inconclusive: 28.2 µM [inhibitor, partial curve]"}
{"smiles": "COc1cc(C=C2C(=O)NC(=O)NC2=O)cc(OC)c1OC", "Potency": "inconclusive: 35.5 µM [inhibitor, partial curve]"}
{"smiles": "Cc1ccnc2nc(C(=O)Nc3ccc(N4CCOCC4)cc3)nn12", "Potency": "inconclusive: 28.2 µM [inhibitor, single point]"}
{"smiles": "Cc1ccc(C)c(/C=N/Nc2nc3ccccc3c(=O)n2O)c1", "Potency": "inconclusive: 10 µM [inhibitor, partial curve]"}
{"smiles": "CCc1cc(=O)[nH]c(SCc2nc(-c3cccc(Cl)c3)no2)n1", "activity, negative = inhibition": "inactive: -6.36%"}
{"smiles": "Oc1ccc(N2CCN(C(c3cccs3)c3nnnn3CCc3ccccc3)CC2)cc1", "note": "(stereo not given)", "Potency": "inconclusive: 12.6 µM [inhibitor, partial curve]"}
{"smiles": "O=C1ON=C(c2cccc([N+](=O)[O-])c2)/C1=C/c1ccc(O)cc1", "Potency": "inconclusive: 50.1 µM [inhibitor, single point]"}
{"smiles": "CCCCN=C1NN=C(c2ccc3c(c2)OCCO3)CS1", "Potency": "inconclusive: 15.8 µM [inhibitor, partial curve]"}
{"smiles": "O=C1ON=C(c2ccccc2)/C1=C/c1ccc(-c2ccccc2[N+](=O)[O-])o1", "Potency": "inconclusive: 50.1 µM [inhibitor, partial curve, poor fit]"}
{"smiles": "CCNC(=O)CCSc1nc(C)cc(C)n1", "Potency": "inconclusive: 35.5 µM [inhibitor, partial curve, poor fit]"}
{"smiles": "NC(=O)Nn1c(CCC(=O)O)ccc1-c1ccc(F)cc1", "activity, negative = inhibition": "inactive: 4.2%"}
{"smiles": "CCn1c(C)nc2cc(-c3nc4n(n3)Cc3ccccc3-4)ccc21", "Potency": "inconclusive: 22.4 µM [inhibitor, partial curve]"}
{"smiles": "S=c1[nH]nc(-c2ccncc2)n1/N=C/C=C/c1ccco1", "Potency": "inconclusive: 3.55 µM [inhibitor, partial curve, poor fit]"}
{"smiles": "COc1ccc(CNC(=O)Nc2ccccc2)cc1", "Potency": "inconclusive: 44.7 µM [inhibitor, single point]"}
{"smiles": "COc1ccc(C(=O)NCC(c2ccco2)N(C)C)cc1S(=O)(=O)NCc1ccc(Cl)cc1", "note": "(stereo not given)", "Potency": "inconclusive: 56.2 µM [inhibitor, partial curve, poor fit]"}
{"smiles": "CC(=O)Nc1ccc(S(=O)(=O)Nc2cc([N+](=O)[O-])ccc2C)cc1", "Potency": "inconclusive: 50.1 µM [inhibitor, single point]"}
{"smiles": "Cc1ccc(NS(=O)(=O)c2ccc(C(=O)Nc3nncs3)cc2)cc1", "activity, negative = inhibition": "inactive: -9.82%"}
{"smiles": "CCCn1c2ccccc2c2cnn(CC(=O)Nc3ccc(C)cc3Br)c(=O)c21", "activity, negative = inhibition": "inactive: -3.33%"}
{"smiles": "Cc1[nH]c(=S)c(C#N)c(C)c1CCC#N", "Potency": "inconclusive: 10 µM [inhibitor, partial curve]"}
{"smiles": "CCCNC(=O)C/C(C)=N/NC(=O)COc1ccc(C)cc1Br", "Potency": "inconclusive: 8.91 µM [inhibitor, partial curve, poor fit]"}
{"smiles": "Cc1ccc(-n2c(Cc3noc4ccccc34)n[nH]c2=S)cc1", "Potency": "inconclusive: 17.8 µM [inhibitor, partial curve, poor fit]"}
{"smiles": "COCOCCn1cc(CN2CCS(=O)(=O)N(Cc3ccc(-c4ccncc4)cc3)C(C(C)C)C2=O)nn1", "note": "(stereo not given)", "activity, negative = inhibition": "inactive: -7.95%"}
{"smiles": "O=C(CNc1ccc(Oc2ccccc2)cc1)N1CCOCC1", "activity, negative = inhibition": "inactive: -11.2%"}
{"smiles": "C#CCN1C(=O)C2(C(C#N)=C(N)OC(C)=C2C(=O)OCc2ccccc2)c2ccccc21", "note": "(stereo not given)", "Potency": "inconclusive: 10 µM [inhibitor, full curve, poor fit]"}
{"smiles": "COc1ccccc1-n1c(-c2cccnc2)n[nH]c1=S", "Potency": "inconclusive: 10 µM [inhibitor, partial curve, poor fit]"}
{"smiles": "C=CCn1c(COc2ccc3c(c2)CCCC3)nnc1SCC(=O)Nc1cccc(SC)c1", "activity, negative = inhibition": "inactive: -3.55%"}
{"smiles": "CCCCn1c(-c2ccc([N+](=O)[O-])cc2)n[nH]c1=S", "Potency": "active: 1.12 µM"}
{"smiles": "Cc1ccc(-n2c(-c3cccc(C)c3)n[nH]c2=S)cc1", "Potency": "active: 2.82 µM"}
{"smiles": "CCc1cc(-c2n[nH]c(=S)n2Cc2ccccc2)cs1", "Potency": "inconclusive: 5.62 µM [inhibitor, partial curve, poor fit]"}
{"smiles": "CCc1ccc(-n2c(Cn3nc(C(F)(F)F)cc3C)n[nH]c2=S)cc1", "Potency": "inconclusive: 8.91 µM [inhibitor, full curve]"}
{"smiles": "c1ccc(C(CN2CCOCC2)c2ccccc2)cc1", "activity, negative = inhibition": "inactive: -8.23%"}
{"smiles": "CC1CCN(C(=O)c2cccc(NC(=O)c3nsc4ccccc34)c2)CC1", "activity, negative = inhibition": "inactive: 5.17%"}
{"smiles": "Cc1nn2cc(-c3ccccc3)nc2s1", "activity, negative = inhibition": "inactive: -26.6%"}
{"smiles": "Cc1cc(C)c(CN2CCN(C(=O)Cn3cnc4c(OCc5ccccc5)ncnc43)CC2)c(C)c1", "activity, negative = inhibition": "inactive: 1.85%"}
{"smiles": "O=C(Nc1ccc2oc(-c3cccnc3)nc2c1)c1cccnc1", "activity, negative = inhibition": "inactive: 2.48%"}
{"smiles": "CCCCn1c(SCC(=O)c2ccc3c(c2)OCCO3)nnc1-c1ccco1", "Potency": "inconclusive: 31.6 µM [inhibitor, partial curve]"}
{"smiles": "COc1ccc(C(=O)NCCn2cc(SCC(=O)Nc3ccc4c(c3)OCCO4)c3ccccc32)cc1OC", "activity, negative = inhibition": "inactive: 8.02%"}
{"smiles": "Cc1ccccc1/C=N/n1c(C2CCCCC2)n[nH]c1=S", "Potency": "inconclusive: 11.2 µM [inhibitor, partial curve, poor fit]"}
{"smiles": "O=C(CSc1nc(-c2ccc(F)cc2)cc(C(F)(F)F)n1)NCc1ccco1", "Potency": "inconclusive: 28.2 µM [inhibitor, partial curve, poor fit]"}
{"smiles": "Cc1nc(-c2ccc(NC(=O)c3ccccc3)cc2)cs1", "Potency": "inconclusive: 50.1 µM [inhibitor, single point]"}
{"smiles": "COc1ccc(CCn2c(-n3nc(C)cc3C)nc3c2c(=O)[nH]c(=O)n3C)cc1", "Potency": "inconclusive: 50.1 µM [inhibitor, single point]"}
{"smiles": "Nn1c(SCC(=O)NC2CCCCC2)nnc1-c1ccccc1F", "activity, negative = inhibition": "inactive: 3.54%"}
{"smiles": "COc1ccccc1C(=O)OCc1cc(=O)n2nc(C(C)C)sc2n1", "activity, negative = inhibition": "inactive: -11.7%"}
{"smiles": "O=C(CCCn1c(=S)[nH]c2ccsc2c1=O)Nc1ccc(F)cc1", "Potency": "inconclusive: 20 µM [inhibitor, partial curve]"}
{"smiles": "Cc1nc2cc(-c3ccccc3)sc2c(=O)n1N", "Potency": "active: 10 µM"}
{"smiles": "O=Cc1ccccc1OCc1ccc2c(c1)OCO2", "Potency": "inconclusive: 35.5 µM [inhibitor, single point]"}
{"smiles": "CC1(C)CC2(CC(c3ccccc3F)c3ccc(O)c(O)c3O2)NC(=S)N1", "note": "(stereo not given)", "Potency": "inconclusive: 15.8 µM [inhibitor, partial curve, poor fit]"}
{"smiles": "S=c1nc(-c2ccccc2Br)[nH][nH]1", "Potency": "inconclusive: 22.4 µM [inhibitor, partial curve, poor fit]"}
{"smiles": "CCOc1ccc2[nH]c(=O)c(CN(Cc3cccs3)C(CC)c3nnnn3C(C)(C)CC)cc2c1", "note": "(stereo not given)", "Potency": "inconclusive: 39.8 µM [inhibitor, single point]"}
{"smiles": "CC(=O)c1ccc(NC(=O)C2Cc3ccccc3CN2C(=O)c2ccccc2)cc1", "note": "(stereo not given)", "activity, negative = inhibition": "inactive: -6.35%"}
{"smiles": "COc1cc(C(=O)NCC(c2ccco2)N2CCc3ccccc3C2)cc(OC)c1OC", "note": "(stereo not given)", "activity, negative = inhibition": "inactive: 0.388%"}
{"smiles": "Cc1[nH]c2ccccc2c1/C=N/NC(=O)c1cccc(F)c1", "activity, negative = inhibition": "inactive: 1.94%"}
{"smiles": "O=C1C2=C(Nc3ccccc3SC2c2ccco2)c2ccccc21", "note": "(stereo not given)", "Potency": "inconclusive: 39.8 µM [inhibitor, partial curve, poor fit]"}
{"smiles": "CC(Cc1ccc(O)c(O)c1)C(C)Cc1ccc(O)c(O)c1", "note": "(stereo not given)", "Potency": "inconclusive: 15.8 µM [inhibitor, partial curve, poor fit] and inconclusive: 44.7 µM [inhibitor, partial curve, poor fit]"}
{"smiles": "Cc1cc(N=Cc2c(O)n(-c3cccc(Cl)c3)c(=O)c3ccccc23)no1", "activity, negative = inhibition": "inactive: -3.15%"}
{"smiles": "COc1ccc(NC(C)=O)cc1NC(=O)CSc1nc2ncccc2[nH]1", "Potency": "inconclusive: 22.4 µM [inhibitor, partial curve, poor fit]"}
{"smiles": "CN(C)S(=O)(=O)c1cccc(NC(=S)N/N=C/c2ccc(O)c(O)c2O)c1", "Potency": "active: 10 µM"}
{"smiles": "Cc1ccc(NC(=O)Cn2cc(S(=O)(=O)N3CCC(C)CC3)c3ccccc3c2=O)c(Br)c1", "activity, negative = inhibition": "inactive: 2.85%"}
{"smiles": "Cc1cccc(Oc2ccc3c(c2)Oc2ccccc2NC3=O)c1", "activity, negative = inhibition": "inactive: -5.89%"}
{"smiles": "O=C(COC(=O)/C=C/c1cccc(Br)c1)Nc1cccc(S(=O)(=O)NC2=NCCC2)c1", "activity, negative = inhibition": "inactive: 0.254%"}
{"smiles": "O=C(NCc1n[nH]c(=S)n1-c1ccc(Cl)c(Cl)c1)c1ccc(S(=O)(=O)N2CCCCC2)cc1", "Potency": "inconclusive: 14.1 µM [inhibitor, partial curve, poor fit]"}
{"smiles": "COc1ccc(Cc2nc(=S)[nH][nH]2)cc1Br", "Potency": "inconclusive: 28.2 µM [inhibitor, partial curve, poor fit]"}
{"smiles": "c1ccc(NC2=NCCCCS2)cc1", "activity, negative = inhibition": "inactive: -0.38%"}
{"smiles": "O=C1OCCC1Sc1nnc(-c2cccnc2)n1-c1ccccc1F", "note": "(stereo not given)", "Potency": "inconclusive: 14.1 µM [inhibitor, partial curve, poor fit]"}
{"smiles": "Cn1c(CCNC(=O)OC(C)(C)C)n[nH]c1=S", "Potency": "inconclusive: 17.8 µM [inhibitor, partial curve, poor fit]"}
{"smiles": "S=c1[nH]nc(-c2cccnc2)n1/N=C/c1ccc(Br)s1", "Potency": "inconclusive: 1.12 µM [inhibitor, full curve, poor fit]"}
{"smiles": "Cc1ccc(/C=C2\\C(=O)Nc3ccccc32)o1", "Potency": "inconclusive: 15.8 µM [inhibitor, partial curve]"}
{"smiles": "O=C(O)CCNc1cc(N2CCN(C(=O)c3ccco3)CC2)c2noc3c2c1C(=O)c1ccccc1-3", "Potency": "inconclusive: 17.8 µM [inhibitor, partial curve, poor fit]"}
{"smiles": "O=C(NC1CCCCC1)Sc1ccc(Cl)cc1", "Potency": "inconclusive: 11.2 µM [inhibitor, full curve, poor fit]"}
{"smiles": "COc1ccc(S(=O)(=O)N2CCC(c3nnc(-c4ccccc4C)o3)CC2)c(OC)c1", "Potency": "inconclusive: 3.98 µM [inhibitor, full curve]"}
